According to patent publication US9573987B2 (priority 2011, dated 2017):
Values joined by “and” are separate entries in the source; they are usually repeats but may differ in a detail not shown here. Identical values can stand only once. Part of at least one peptide drawing is inferred or uncertain, most often the ends.

Assays:
insulin receptor = insulin receptor (Homo sapiens, UniProt P06213); assay: Insulin receptor binding assay (competition, scintillation proximity); design: expressed in transfected cells; plasma membrane fragments; details: for Ratio: IGF-1 receptor IC50 over insulin receptor IC50; for Insulin Receptor % insulin (in test) / Insulin Receptor % native insulin activity (0.6 nM): Table 9; for % of Insulin Activity: relative to Insulin Standard of the same table
UniProt P06213, sequence (P06213 28-758 limits assumed): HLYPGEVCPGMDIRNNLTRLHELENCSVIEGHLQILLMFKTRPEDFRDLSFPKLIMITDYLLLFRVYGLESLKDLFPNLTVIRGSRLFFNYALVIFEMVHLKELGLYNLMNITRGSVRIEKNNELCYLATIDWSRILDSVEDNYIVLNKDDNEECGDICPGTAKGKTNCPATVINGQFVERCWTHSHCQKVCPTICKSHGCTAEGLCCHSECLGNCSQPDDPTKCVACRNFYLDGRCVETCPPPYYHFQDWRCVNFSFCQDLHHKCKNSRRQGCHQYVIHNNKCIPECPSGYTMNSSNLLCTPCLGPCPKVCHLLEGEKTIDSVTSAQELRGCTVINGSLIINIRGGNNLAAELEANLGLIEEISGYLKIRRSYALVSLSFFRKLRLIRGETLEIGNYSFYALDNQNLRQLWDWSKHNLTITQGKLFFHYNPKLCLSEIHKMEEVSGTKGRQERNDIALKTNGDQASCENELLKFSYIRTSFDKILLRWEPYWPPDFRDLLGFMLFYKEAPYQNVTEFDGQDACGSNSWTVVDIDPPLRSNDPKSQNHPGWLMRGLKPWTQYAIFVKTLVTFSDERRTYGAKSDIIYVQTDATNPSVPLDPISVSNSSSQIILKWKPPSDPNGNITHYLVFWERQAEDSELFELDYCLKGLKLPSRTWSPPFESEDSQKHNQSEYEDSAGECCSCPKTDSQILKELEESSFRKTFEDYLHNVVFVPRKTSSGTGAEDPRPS
UniProt P06213, sequence (P06213 763-1382 partner limits assumed): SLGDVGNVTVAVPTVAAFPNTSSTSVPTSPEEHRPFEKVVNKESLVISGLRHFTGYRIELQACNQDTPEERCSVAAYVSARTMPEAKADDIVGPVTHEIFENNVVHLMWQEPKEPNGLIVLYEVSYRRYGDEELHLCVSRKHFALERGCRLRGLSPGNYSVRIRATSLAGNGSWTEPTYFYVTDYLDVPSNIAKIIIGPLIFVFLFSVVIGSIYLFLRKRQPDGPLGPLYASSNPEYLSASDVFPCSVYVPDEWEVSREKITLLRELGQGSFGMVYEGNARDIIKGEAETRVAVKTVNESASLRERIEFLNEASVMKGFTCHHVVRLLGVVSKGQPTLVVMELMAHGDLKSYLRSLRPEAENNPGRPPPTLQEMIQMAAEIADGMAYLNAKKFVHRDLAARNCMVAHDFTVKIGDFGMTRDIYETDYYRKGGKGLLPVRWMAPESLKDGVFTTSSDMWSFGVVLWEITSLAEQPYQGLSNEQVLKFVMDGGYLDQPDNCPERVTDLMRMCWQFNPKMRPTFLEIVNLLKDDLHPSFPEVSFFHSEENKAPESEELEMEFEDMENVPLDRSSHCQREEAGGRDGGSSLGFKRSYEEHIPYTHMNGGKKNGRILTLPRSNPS

IGF-1 receptor = IGF-1 receptor (Homo sapiens, UniProt P08069); assay: IGF-1 receptor binding assay (competition, scintillation proximity); design: expressed in transfected cells; plasma membrane fragments; details: Table 9
UniProt P08069, sequence (P08069 31-736 limits assumed): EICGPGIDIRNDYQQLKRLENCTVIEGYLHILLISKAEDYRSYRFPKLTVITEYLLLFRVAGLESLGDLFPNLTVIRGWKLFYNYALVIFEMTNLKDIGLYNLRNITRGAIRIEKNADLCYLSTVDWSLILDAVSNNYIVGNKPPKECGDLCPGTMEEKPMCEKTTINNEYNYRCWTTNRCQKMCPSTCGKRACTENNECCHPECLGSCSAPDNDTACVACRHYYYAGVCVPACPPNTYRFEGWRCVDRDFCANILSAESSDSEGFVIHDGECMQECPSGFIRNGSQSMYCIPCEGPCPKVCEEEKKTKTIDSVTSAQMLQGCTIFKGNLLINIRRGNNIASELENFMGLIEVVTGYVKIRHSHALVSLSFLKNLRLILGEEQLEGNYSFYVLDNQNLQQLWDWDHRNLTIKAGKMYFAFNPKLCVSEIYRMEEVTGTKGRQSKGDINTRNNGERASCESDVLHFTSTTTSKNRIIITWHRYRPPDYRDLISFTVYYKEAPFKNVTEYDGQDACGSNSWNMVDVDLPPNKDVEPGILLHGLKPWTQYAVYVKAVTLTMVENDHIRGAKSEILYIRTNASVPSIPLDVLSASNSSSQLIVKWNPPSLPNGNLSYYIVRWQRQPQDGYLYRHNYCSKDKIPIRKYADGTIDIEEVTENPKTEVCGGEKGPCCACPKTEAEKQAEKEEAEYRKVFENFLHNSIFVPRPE
UniProt P08069, sequence (P08069 741-1367 partner limits assumed): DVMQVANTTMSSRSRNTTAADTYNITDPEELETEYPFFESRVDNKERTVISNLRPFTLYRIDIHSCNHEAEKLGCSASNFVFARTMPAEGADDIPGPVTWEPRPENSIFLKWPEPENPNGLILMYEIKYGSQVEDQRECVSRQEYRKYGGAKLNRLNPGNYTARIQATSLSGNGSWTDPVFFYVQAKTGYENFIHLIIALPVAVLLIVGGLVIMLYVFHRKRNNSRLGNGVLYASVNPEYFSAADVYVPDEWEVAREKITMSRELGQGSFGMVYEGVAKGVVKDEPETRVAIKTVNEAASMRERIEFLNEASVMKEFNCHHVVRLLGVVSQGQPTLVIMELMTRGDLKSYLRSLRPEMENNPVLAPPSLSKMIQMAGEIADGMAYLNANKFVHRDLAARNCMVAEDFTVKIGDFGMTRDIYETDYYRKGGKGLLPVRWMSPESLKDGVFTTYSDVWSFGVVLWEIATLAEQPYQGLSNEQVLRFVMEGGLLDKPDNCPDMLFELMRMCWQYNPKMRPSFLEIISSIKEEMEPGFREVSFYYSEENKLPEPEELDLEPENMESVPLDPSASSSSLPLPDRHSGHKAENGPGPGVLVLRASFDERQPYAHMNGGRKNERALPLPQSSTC

Row | SMILES | Ratio (insulin receptor) | Insulin Receptor % insulin (in test) (insulin receptor) | Insulin Receptor % native insulin activity (0.6 nM) (insulin receptor) | IGF-1 Receptor % IGF-1 (in test) (IGF-1 receptor) | % of Insulin Activity (insulin receptor)
1 | CC[C@H](C)[C@H](NC(=O)CN)C(=O)N[C@H](C(=O)N[C@@H](CC(=O)O)C(=O)N[C@@H](CCC(=O)O)C(=O)N[C@H]1CSSC[C@@H]2NC(=O)[C@H](CO)NC(=O)[C@H](CCCNC(=N)N)NC(=O)[C@H](Cc3ccccc3)NC(=O)[C@H](CSSC[C@H](NC(=O)[C@H](CC(C)C)NC(=O)[C@@H](NC(=O)[C@H](CCC(=O)O)NC(=O)[C@@H]3CCCN3C(=O)CN)[C@@H](C)O)C(=O)NCC(=O)N[C@@H](CO)C(=O)N[C@@H](Cc3c[nH]cn3)C(=O)N[C@@H](CC(C)C)C(=O)N[C@@H](C(C)C)C(=O)N[C@@H](CCC(=O)O)C(=O)N[C@@H](C)C(=O)N[C@@H](CC(C)C)C(=O)N[C@@H](Cc3ccc(O)cc3)C(=O)N[C@@H](CC(C)C)C(=O)N[C@@H](C(C)C)C(=O)N[C@H](C(=O)NCC(=O)N[C@@H](CC(=O)O)C(=O)N[C@@H](CCCNC(=N)N)C(=O)NCC(=O)N[C@@H](Cc3ccccc3)C(=O)N[C@@H](Cc3ccc(O)cc3)C(=O)N[C@@H](Cc3ccccc3)C(=O)N[C@@H](CC(N)=O)C(=O)N[C@@H](CCCCN)C(=O)N3CCC[C@H]3C(=O)N[C@H](C(N)=O)[C@@H](C)O)CSSC[C@@H](C(=O)N[C@@H](C)C(N)=O)NC(=O)[C@H](Cc3ccc(O)cc3)NC(=O)[C@H](CCSC)NC(=O)[C@H](CCC(=O)O)NC(=O)[C@H](CC(C)C)NC(=O)[C@H](CCCNC(=N)N)NC(=O)[C@H](CCCNC(=N)N)NC(=O)[C@H](CC(C)C)NC(=O)[C@H](CC(=O)O)NC2=O)NC1=O)C(C)C | 82.6 | 19.1% | 37.7% | 0.3% | 
2 | CC[C@H](C)[C@H](NC(=O)CNC(=O)[C@@H]1CCCN1C(=O)[C@H](C)N)C(=O)N[C@H](C(=O)N[C@@H](CC(=O)O)C(=O)N[C@@H](CCC(=O)O)C(=O)N[C@H]1CSSC[C@@H]2NC(=O)[C@H](CO)NC(=O)[C@H](CCCNC(=N)N)NC(=O)[C@H](Cc3ccccc3)NC(=O)[C@H](CSSC[C@H](NC(=O)[C@H](CC(C)C)NC(=O)[C@@H](NC(=O)[C@H](CCC(=O)O)NC(=O)[C@@H]3CCCN3C(=O)CN)[C@@H](C)O)C(=O)NCC(=O)N[C@@H](C)C(=O)N[C@@H](CCC(=O)O)C(=O)N[C@@H](CC(C)C)C(=O)N[C@@H](C(C)C)C(=O)N[C@@H](CC(=O)O)C(=O)N[C@@H](C)C(=O)N[C@@H](CC(C)C)C(=O)N[C@@H](Cc3ccc(O)cc3)C(=O)N[C@@H](CC(C)C)C(=O)N[C@@H](C(C)C)C(=O)N[C@H](C(=O)NCC(=O)N[C@@H](CC(=O)O)C(=O)N[C@@H](CCCNC(=N)N)C(=O)NCC(=O)N[C@@H](Cc3ccccc3)C(=O)N[C@@H](Cc3ccc(O)cc3)C(=O)N[C@@H](Cc3ccccc3)C(=O)N[C@@H](CC(N)=O)C(=O)N[C@@H](CCCCN)C(=O)N3CCC[C@H]3C(=O)N[C@H](C(N)=O)[C@@H](C)O)CSSC[C@@H](C(=O)N[C@@H](C)C(N)=O)NC(=O)[C@H](Cc3ccc(O)cc3)NC(=O)[C@H](CCSC)NC(=O)[C@H](CCC(=O)O)NC(=O)[C@H](CC(C)C)NC(=O)[C@H](CCCNC(=N)N)NC(=O)[C@H](CCCNC(=N)N)NC(=O)[C@H](CC(C)C)NC(=O)[C@H](CC(=O)O)NC2=O)NC1=O)C(C)C [IGF1(Y^B16L^B17)(AlaPro)^A-1, 0] |  |  |  |  | 37.12%
3 | CC[C@H](C)[C@H](NC(=O)CN)C(=O)N[C@H](C(=O)N[C@@H](CC(=O)O)C(=O)N[C@@H](CCC(=O)O)C(=O)N[C@H]1CSSC[C@@H]2NC(=O)[C@H](CO)NC(=O)[C@H](CCCNC(=N)N)NC(=O)[C@H](Cc3ccccc3)NC(=O)[C@H](CSSC[C@H](NC(=O)[C@H](CC(C)C)NC(=O)[C@@H](NC(=O)[C@H](CCC(=O)O)NC(=O)[C@@H]3CCCN3C(=O)CN)[C@@H](C)O)C(=O)NCC(=O)N[C@@H](C)C(=O)N[C@@H](CCC(=O)O)C(=O)N[C@@H](CC(C)C)C(=O)N[C@@H](C(C)C)C(=O)N[C@@H](CC(=O)O)C(=O)N[C@@H](C)C(=O)N[C@@H](CC(C)C)C(=O)N[C@@H](Cc3ccc(O)cc3)C(=O)N[C@@H](CC(C)C)C(=O)N[C@@H](C(C)C)C(=O)N[C@H](C(=O)NCC(=O)N[C@@H](CC(=O)O)C(=O)N[C@@H](CCCNC(=N)N)C(=O)NCC(=O)N[C@@H](Cc3ccccc3)C(=O)N[C@@H](Cc3ccc(O)cc3)C(=O)N[C@@H](Cc3ccccc3)C(=O)N[C@@H](CC(N)=O)C(=O)N[C@@H](CCCCN)C(=O)N3CCC[C@H]3C(=O)N[C@H](C(N)=O)[C@@H](C)O)CSSC[C@@H](C(=O)N[C@@H](C)C(N)=O)NC(=O)[C@H](Cc3ccc(N)cc3)NC(=O)[C@H](CCSC)NC(=O)[C@H](CCC(=O)O)NC(=O)[C@H](CC(C)C)NC(=O)[C@H](CCCNC(=N)N)NC(=O)[C@H](CCCNC(=N)N)NC(=O)[C@H](CC(C)C)NC(=O)[C@H](CC(=O)O)NC2=O)NC1=O)C(C)C [IGF1(Y^B16L^B17)(p-NH2—F)^A19amide] |  |  |  |  | 22%
4 | CC[C@H](C)[C@H](NC(=O)CN)C(=O)N[C@H](C(=O)N[C@@H](CC(=O)O)C(=O)N[C@@H](CCC(=O)O)C(=O)N[C@H]1CSSC[C@@H]2NC(=O)[C@H](CO)NC(=O)[C@H](CCCNC(=N)N)NC(=O)[C@H](Cc3ccccc3)NC(=O)[C@H](CSSC[C@H](NC(=O)[C@H](CC(C)C)NC(=O)[C@@H](NC(=O)[C@H](CCC(=O)O)NC(=O)[C@@H]3CCCN3C(=O)CN)[C@@H](C)O)C(=O)NCC(=O)N[C@@H](C)C(=O)N[C@@H](CCC(=O)O)C(=O)N[C@@H](CC(C)C)C(=O)N[C@@H](C(C)C)C(=O)N[C@@H](CC(=O)O)C(=O)N[C@@H](C)C(=O)N[C@@H](CC(C)C)C(=O)N[C@@H](Cc3ccc(O)cc3)C(=O)N[C@@H](CC(C)C)C(=O)N[C@@H](C(C)C)C(=O)N[C@H](C(=O)NCC(=O)N[C@@H](CC(=O)O)C(=O)N[C@@H](CCCNC(=N)N)C(=O)NCC(=O)N[C@@H](Cc3ccccc3)C(=O)N[C@@H](Cc3ccc(O)cc3)C(=O)N[C@@H](Cc3ccccc3)C(=O)N[C@@H](CC(N)=O)C(=O)N[C@@H](CCCCN)C(=O)N3CCC[C@H]3C(=O)N[C@H](C(N)=O)[C@@H](C)O)CSSC[C@@H](C(=O)N[C@@H](C)C(N)=O)NC(=O)[C@H](Cc3ccc(O)cc3)NC(=O)[C@H](CCSC)NC(=O)[C@H](CCC(=O)O)NC(=O)[C@H](CC(C)C)NC(=O)[C@H](CCCNC(=N)N)NC(=O)[C@H](CCCNC(=N)N)NC(=O)[C@H](CC(C)C)NC(=O)[C@H](CC(=O)O)NC2=O)NC1=O)C(C)C [IGF1(Y^B16L^B17)] |  |  |  |  | 262%
5 | CC[C@H](C)[C@H](NC(=O)CN)C(=O)N[C@H](C(=O)N[C@@H](CC(=O)O)C(=O)N[C@@H](CCC(=O)O)C(=O)N[C@H]1CSSC[C@@H]2NC(=O)[C@H](CO)NC(=O)[C@H](CCCNC(=N)N)NC(=O)[C@H](Cc3ccccc3)NC(=O)[C@H](CSSC[C@H](NC(=O)[C@H](CC(C)C)NC(=O)[C@H](Cc3c[nH]cn3)NC(=O)[C@H](CCC(N)=O)NC(=O)[C@H](CC(N)=O)NC(=O)[C@@H](NC(=O)[C@@H](N)Cc3ccccc3)C(C)C)C(=O)NCC(=O)N[C@@H](CO)C(=O)N[C@@H](Cc3c[nH]cn3)C(=O)N[C@@H](CC(C)C)C(=O)N[C@@H](C(C)C)C(=O)N[C@@H](CCC(=O)O)C(=O)N[C@@H](C)C(=O)N[C@@H](CC(C)C)C(=O)N[C@@H](Cc3ccc(O)cc3)C(=O)N[C@@H](CC(C)C)C(=O)N[C@@H](C(C)C)C(=O)N[C@H](C(=O)NCC(=O)N[C@@H](CC(=O)O)C(=O)N[C@@H](CCCNC(=N)N)C(=O)NCC(=O)N[C@@H](Cc3ccccc3)C(=O)N[C@@H](Cc3ccc(O)cc3)C(=O)N[C@@H](Cc3ccccc3)C(=O)N[C@@H](CC(N)=O)C(=O)N[C@@H](CCCCN)C(=O)N3CCC[C@H]3C(=O)N[C@H](C(N)=O)[C@@H](C)O)CSSC[C@@H](C(=O)N[C@@H](C)C(N)=O)NC(=O)[C@H](Cc3ccc(O)cc3)NC(=O)[C@H](CCSC)NC(=O)[C@H](CCC(=O)O)NC(=O)[C@H](CC(C)C)NC(=O)[C@H](CCCNC(=N)N)NC(=O)[C@H](CCCNC(=N)N)NC(=O)[C@H](CC(C)C)NC(=O)[C@H](CC(=O)O)NC2=O)NC1=O)C(C)C [IGF-1 A:In (1-17)-IGF-1 B (18-30)] | 22.6 | 14.0% and 11.3% and 20.1% | 21.7% and 22.5% and 24.2% | 0.9% | 
6 | CC[C@H](C)[C@H](NC(=O)CN)C(=O)N[C@H](C(=O)N[C@@H](CC(=O)O)C(=O)N[C@@H](CCC(=O)O)C(=O)N[C@H]1CSSC[C@@H]2NC(=O)[C@H](CO)NC(=O)[C@H](CCCNC(=N)N)NC(=O)[C@H](Cc3ccccc3)NC(=O)[C@H](CSSC[C@H](NC(=O)[C@H](CC(C)C)NC(=O)[C@H](Cc3c[nH]cn3)NC(=O)[C@H](CCC(N)=O)NC(=O)[C@H](CC(N)=O)NC(=O)[C@@H](NC(=O)[C@@H](N)Cc3ccccc3)C(C)C)C(=O)NCC(=O)N[C@@H](C)C(=O)N[C@@H](CCC(=O)O)C(=O)N[C@@H](CC(C)C)C(=O)N[C@@H](C(C)C)C(=O)N[C@@H](CC(=O)O)C(=O)N[C@@H](C)C(=O)N[C@@H](CC(C)C)C(=O)N[C@@H](Cc3ccc(O)cc3)C(=O)N[C@@H](CC(C)C)C(=O)N[C@@H](C(C)C)C(=O)N[C@H](C(=O)NCC(=O)N[C@@H](CC(=O)O)C(=O)N[C@@H](CCCNC(=N)N)C(=O)NCC(=O)N[C@@H](Cc3ccccc3)C(=O)N[C@@H](Cc3ccc(O)cc3)C(=O)N[C@@H](Cc3ccccc3)C(=O)N[C@@H](CC(N)=O)C(=O)N[C@@H](CCCCN)C(=O)N3CCC[C@H]3C(=O)N[C@H](C(N)=O)[C@@H](C)O)CSSC[C@@H](C(=O)N[C@@H](C)C(N)=O)NC(=O)[C@H](Cc3ccc(O)cc3)NC(=O)[C@H](CCSC)NC(=O)[C@H](CCC(=O)O)NC(=O)[C@H](CC(C)C)NC(=O)[C@H](CCCNC(=N)N)NC(=O)[C@H](CCCNC(=N)N)NC(=O)[C@H](CC(C)C)NC(=O)[C@H](CC(=O)O)NC2=O)NC1=O)C(C)C [IGF-1 A:In B(1-5)-IGF-1 B(YL)(6-30)] |  |  |  | 3.6% | 
